{"source": "the supplement of paper PMC8728848", "binders": {"B1": {"name": "Cohesin-hDCIR (Homo sapiens) (protein)", "chain": "LDDLDAVRIKVDTVNAKPGDTVRIPVRFSGIPSKGIANCDFVYSYDPNVLEIIEIEPGDIIVDPNPDKSFDTAVYPDRKIIVFLFAEDSGTGAYAITKDGVFATIVAKVKEGAPNGLSVIKFVEVGGFANNDLVEQKTQFFDGGANVGDTTEPATPTTPVTTPTTTDDLDAASQKYSQLLEKKTTKELVHTTLECVKKNMPVEETAWSCCPKNWKSFSSNCYFISTESASWQDSEKDCARMEAHLLVINTQEEQDFIFQNLQEESAYFVGLSDPEGQRHWQWVDQTPYNESSTFWHPREPSDPNERCVVLNFRKSPKRWGWNDVNCLGPQRSVCEMMKIHLHHHHHH"}}, "assay_in_all_cases": "glycan array binding signal (z-score within array); higher = stronger binding", "settings_in_all_cases": "glycan notation: IUPAC condensed, linker removed", "key": {"Gal3S6S(b1-4)GlcNAc": {"target": "Gal3S6S(b1-4)GlcNAc", "procedure,_shortened": "(§1)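 Arrays were curated from the Consortium for Functional Glycomics database, 3228 in total, and kept only where the protein sequence was available. Binding is expressed as a within-array Z-score. This score was averaged across arrays of the same protein sequence at different concentrations or buffers and across linkers, and negative values can be read as non-binding.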"}, "Gal3S6S(b1-4)GlcNAc6S": {"target": "Gal3S6S(b1-4)GlcNAc6S", "procedure,_shortened": "as §1"}, "Gal4S(b1-4)GlcNAc": {"target": "Gal4S(b1-4)GlcNAc", "procedure,_shortened": "as §1"}, "Gal4S6S(b1-4)GlcNAc": {"target": "Gal4S6S(b1-4)GlcNAc", "procedure,_shortened": "as §1"}, "Gal6P(b1-4)GlcNAc": {"target": "Gal6P(b1-4)GlcNAc", "procedure,_shortened": "as §1"}, "Gal6S(b1-3)GlcNAc": {"target": "Gal6S(b1-3)GlcNAc", "procedure,_shortened": "as §1"}, "Gal6S(b1-3)GlcNAc6S": {"target": "Gal6S(b1-3)GlcNAc6S", "procedure,_shortened": "as §1"}, "Gal6S(b1-4)Glc": {"target": "Gal6S(b1-4)Glc", "procedure,_shortened": "as §1"}, "Gal6S(b1-4)Glc6S": {"target": "Gal6S(b1-4)Glc6S", "procedure,_shortened": "as §1"}, "Gal6S(b1-4)GlcNAc": {"target": "Gal6S(b1-4)GlcNAc", "procedure,_shortened": "as §1"}, "Gal6S(b1-4)GlcNAc6S": {"target": "Gal6S(b1-4)GlcNAc6S", "procedure,_shortened": "as §1"}, "GalNAc(a1-3)Gal": {"target": "GalNAc(a1-3)Gal", "procedure,_shortened": "as §1"}, "GalNAc(a1-3)GalNAc": {"target": "GalNAc(a1-3)GalNAc", "procedure,_shortened": "as §1"}, "[1]": {"target": "GalNAc(a1-3)GalNAc(b1-3)Gal(a1-4)Gal(b1-4)Glc", "procedure,_shortened": "as §1"}, "[2]": {"target": "GalNAc(a1-3)GalNAc(b1-3)Gal(a1-4)Gal(b1-4)GlcNAc", "procedure,_shortened": "as §1"}, "GalNAc(b1-3)Gal": {"target": "GalNAc(b1-3)Gal", "procedure,_shortened": "as §1"}, "[3]": {"target": "GalNAc(b1-3)Gal(a1-4)Gal(b1-4)GlcNAc", "procedure,_shortened": "as §1"}, "[4]": {"target": "GalNAc(b1-3)Gal(a1-4)Gal(b1-4)GlcNAc(b1-3)Gal(b1-4)Glc", "procedure,_shortened": "as §1"}, "[5]": {"target": "GalNAc(b1-3)Gal(a1-6)Gal(b1-4)Glc", "procedure,_shortened": "as §1"}, "GalNAc(b1-3)GalNAc": {"target": "GalNAc(b1-3)GalNAc", "procedure,_shortened": "as §1"}, "GalNAc(b1-3)GlcNAc": {"target": "GalNAc(b1-3)GlcNAc", "procedure,_shortened": "as §1"}, "GalNAc(b1-4)Gal(b1-4)Glc": {"target": "GalNAc(b1-4)Gal(b1-4)Glc", "procedure,_shortened": "as §1"}, "GalNAc(b1-4)GlcNAc": {"target": "GalNAc(b1-4)GlcNAc", "procedure,_shortened": "as §1"}, "[6]": {"target": "GalNAc(b1-4)GlcNAc(b1-2)Man", "procedure,_shortened": "as §1"}, "[7]": {"target": "GalNAc(b1-4)GlcNAc(b1-2)Man(a1-3)[GalNAc(b1-4)GlcNAc(b1-2)Man(a1-6)]Man(b1-4)GlcNAc(b1-4)GlcNAc", "procedure,_shortened": "as §1"}, "[8]": {"target": "GalNAc(b1-4)GlcNAc(b1-3)GalNAc(b1-4)GlcNAc", "procedure,_shortened": "as §1"}, "GalNAc(b1-4)GlcNAc6S": {"target": "GalNAc(b1-4)GlcNAc6S", "procedure,_shortened": "as §1"}, "GalNAc(b1-6)GalNAc": {"target": "GalNAc(b1-6)GalNAc", "procedure,_shortened": "as §1"}, "GalNAc3S(b1-4)GlcNAc": {"target": "GalNAc3S(b1-4)GlcNAc", "procedure,_shortened": "as §1"}, "GalNAc3S(b1-4)GlcNAc3S": {"target": "GalNAc3S(b1-4)GlcNAc3S", "procedure,_shortened": "as §1"}, "[9]": {"target": "GalNAc3S(b1-4)[Fuc(a1-3)]GlcNAc", "procedure,_shortened": "as §1"}, "GalNAc4S6S(b1-4)GlcNAc": {"target": "GalNAc4S6S(b1-4)GlcNAc", "procedure,_shortened": "as §1"}, "GalNAc6S(b1-4)GlcNAc": {"target": "GalNAc6S(b1-4)GlcNAc", "procedure,_shortened": "as §1"}, "Glc(a1-4)Glc": {"target": "Glc(a1-4)Glc", "procedure,_shortened": "as §1"}, "[10]": {"target": "Glc(a1-4)Glc(a1-4)Glc(a1-4)Glc", "procedure,_shortened": "as §1"}, "Glc(a1-6)Glc(a1-6)Glc": {"target": "Glc(a1-6)Glc(a1-6)Glc", "procedure,_shortened": "as §1"}, "[11]": {"target": "Glc(a1-6)Glc(a1-6)Glc(a1-6)Glc", "procedure,_shortened": "as §1"}, "Glc(b1-4)Glc": {"target": "Glc(b1-4)Glc", "procedure,_shortened": "as §1"}}, "note": "The other results are listed elsewhere or left out.", "data": [{"binder": "B1", "values": [{"measurement": "glycan array binding signal (z-score)", "setting": "Gal3S6S(b1-4)GlcNAc", "result": 0.334}, {"measurement": "glycan array binding signal (z-score)", "setting": "Gal3S6S(b1-4)GlcNAc6S", "result": 0.229}, {"measurement": "glycan array binding signal (z-score)", "setting": "Gal4S(b1-4)GlcNAc", "result": -0.653}, {"measurement": "glycan array binding signal (z-score)", "setting": "Gal4S6S(b1-4)GlcNAc", "result": -0.175}, {"measurement": "glycan array binding signal (z-score)", "setting": "Gal6P(b1-4)GlcNAc", "result": -0.376}, {"measurement": "glycan array binding signal (z-score)", "setting": "Gal6S(b1-3)GlcNAc", "result": -0.662}, {"measurement": "glycan array binding signal (z-score)", "setting": "Gal6S(b1-3)GlcNAc6S", "result": 1.68}, {"measurement": "glycan array binding signal (z-score)", "setting": "Gal6S(b1-4)Glc", "result": -0.253}, {"measurement": "glycan array binding signal (z-score)", "setting": "Gal6S(b1-4)Glc6S", "result": -0.146}, {"measurement": "glycan array binding signal (z-score)", "setting": "Gal6S(b1-4)GlcNAc", "result": -0.57}, {"measurement": "glycan array binding signal (z-score)", "setting": "Gal6S(b1-4)GlcNAc6S", "result": -0.18}, {"measurement": "glycan array binding signal (z-score)", "setting": "GalNAc(a1-3)Gal", "result": 1.17}, {"measurement": "glycan array binding signal (z-score)", "setting": "GalNAc(a1-3)GalNAc", "result": -0.465}, {"measurement": "glycan array binding signal (z-score)", "setting": "[1]", "result": -0.654}, {"measurement": "glycan array binding signal (z-score)", "setting": "[2]", "result": -0.219}, {"measurement": "glycan array binding signal (z-score)", "setting": "GalNAc(b1-3)Gal", "result": 3.75}, {"measurement": "glycan array binding signal (z-score)", "setting": "[3]", "result": 2.57}, {"measurement": "glycan array binding signal (z-score)", "setting": "[4]", "result": 4.3}, {"measurement": "glycan array binding signal (z-score)", "setting": "[5]", "result": 5.47}, {"measurement": "glycan array binding signal (z-score)", "setting": "GalNAc(b1-3)GalNAc", "result": -0.319}, {"measurement": "glycan array binding signal (z-score)", "setting": "GalNAc(b1-3)GlcNAc", "result": 1.57}, {"measurement": "glycan array binding signal (z-score)", "setting": "GalNAc(b1-4)Gal(b1-4)Glc", "result": -0.229}, {"measurement": "glycan array binding signal (z-score)", "setting": "GalNAc(b1-4)GlcNAc", "result": 1.98}, {"measurement": "glycan array binding signal (z-score)", "setting": "[6]", "result": 2.08}, {"measurement": "glycan array binding signal (z-score)", "setting": "[7]", "result": 0.532}, {"measurement": "glycan array binding signal (z-score)", "setting": "[8]", "result": 2.71}, {"measurement": "glycan array binding signal (z-score)", "setting": "GalNAc(b1-4)GlcNAc6S", "result": 0.86}, {"measurement": "glycan array binding signal (z-score)", "setting": "GalNAc(b1-6)GalNAc", "result": -0.562}, {"measurement": "glycan array binding signal (z-score)", "setting": "GalNAc3S(b1-4)GlcNAc", "result": -0.389}, {"measurement": "glycan array binding signal (z-score)", "setting": "GalNAc3S(b1-4)GlcNAc3S", "result": -0.554}, {"measurement": "glycan array binding signal (z-score)", "setting": "[9]", "result": -0.581}, {"measurement": "glycan array binding signal (z-score)", "setting": "GalNAc4S6S(b1-4)GlcNAc", "result": -0.659}, {"measurement": "glycan array binding signal (z-score)", "setting": "GalNAc6S(b1-4)GlcNAc", "result": 0.617}, {"measurement": "glycan array binding signal (z-score)", "setting": "Glc(a1-4)Glc", "result": -0.166}, {"measurement": "glycan array binding signal (z-score)", "setting": "[10]", "result": -0.332}, {"measurement": "glycan array binding signal (z-score)", "setting": "Glc(a1-6)Glc(a1-6)Glc", "result": -0.491}, {"measurement": "glycan array binding signal (z-score)", "setting": "[11]", "result": -0.038}, {"measurement": "glycan array binding signal (z-score)", "setting": "Glc(b1-4)Glc", "result": -0.296}]}]}
